PubChem BioAssay AID588342 (National Center for Advancing Translational Sciences (NCATS), 2011)
In all, about 360,000 compounds went through this assay and about 25,000 (6.9%) were called active. This list was built around the results that the source calls inconclusive (neither active nor inactive); the mix of calls is not that of the screen. The call rests on the fitted dose curve; in most records, active means well fitted inhibition curve with a large enough effect; inconclusive means small, poorly fitted or top-dose-only effect; inactive means flat fitted curve, though single readings scatter. A potency beside an inconclusive call is a rough fit, not a confirmed value.

Each compound was assayed against Luciferin 4-monooxygenase (Photinus pyralis) (UniProt P08659) (assay: qHTS profiling assay for firefly luciferase inhibitor/activator using purifed enzyme and Km concentrations of substrates (counterscreen for miR-21 project)). Conditions: purified FLuc, luminescence inhibition; series mostly up to 57.5 µM.
Chain of UniProt P08659 (P08659 whole entry, looked up): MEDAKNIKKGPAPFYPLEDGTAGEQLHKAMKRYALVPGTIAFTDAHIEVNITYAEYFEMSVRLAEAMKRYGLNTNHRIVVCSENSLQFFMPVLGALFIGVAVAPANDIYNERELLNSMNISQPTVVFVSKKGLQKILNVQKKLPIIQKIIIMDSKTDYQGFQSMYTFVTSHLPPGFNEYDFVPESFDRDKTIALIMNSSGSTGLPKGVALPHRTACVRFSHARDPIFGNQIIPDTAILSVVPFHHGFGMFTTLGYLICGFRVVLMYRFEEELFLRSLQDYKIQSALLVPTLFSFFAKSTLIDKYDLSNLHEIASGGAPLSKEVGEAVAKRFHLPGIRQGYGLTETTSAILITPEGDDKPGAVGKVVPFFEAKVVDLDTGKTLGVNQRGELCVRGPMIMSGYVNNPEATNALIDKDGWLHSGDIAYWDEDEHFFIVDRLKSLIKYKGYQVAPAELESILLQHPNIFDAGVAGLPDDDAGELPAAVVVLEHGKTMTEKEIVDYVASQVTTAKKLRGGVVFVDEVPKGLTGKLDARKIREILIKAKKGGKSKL
Procedure, shortened: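 Purified P. pyralis luciferase, 10 nM final, with Km-level 10 uM D-luciferin and 10 uM ATP in 50 mM Tris acetate pH 7.5, 10 mM Mg acetate, 0.01% Tween-20, 0.05% BSA; 6-point qHTS titration about 60 µM downward; luminescence read.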
Further: nearly all actives have a fitted effect of over 55% in size.
Potency means the concentration at half of the fitted maximal effect; tags describe the fitted curve by direction and shape.

| Structure (SMILES) | Potency |
| --- | --- |
| COc1ccc(C2C(=O)N(C3CCCCC3)CC(=O)N2CCc2ccc(C)cc2)cc1OC (stereo not drawn) | inactive |
| C=CCSC1=N/C(=C\c2ccc(C)o2)C(=O)S1 | active: 15.1 µM |
| COc1ccc(S(=O)(=O)N2CCCC2CNC(=O)C(=O)NCc2ccccn2)cc1 (stereo not drawn) | inactive |
| Cn1c(=O)c(C(=O)CCl)c(N)n(CC2CC2)c1=O | inactive |
| O=C(CSc1nnc(C2CC2)n1-c1ccccc1)Nc1ccc(N2CCOCC2)cc1 | inconclusive: 30.1 µM [inhibitor, partial curve, poor fit] |
| Cc1ccc(C(=O)Nc2cccnc2)cc1S(=O)(=O)N1CCCCC1 | inactive |
| Cc1ccc(/C=C2/NC(=O)[C@H](C)NC2=O)cc1 | inconclusive: 37.9 µM [inhibitor, single point] |
| COCCNC(=O)c1ccccc1-c1nc(-c2ccccc2OC)no1 | inconclusive: 21.3 µM [inhibitor, partial curve] |
| COC(CNC(=O)c1cnn2c(C)c(Cc3ccccc3)c(C)nc12)OC | inactive |
| Cc1ccccc1-c1nc(CN2CCCC(C(=O)NCc3ccc(Cl)cc3)C2)c(C)o1 (stereo not drawn) | inconclusive: 21.3 µM [inhibitor, partial curve, poor fit] |
| COC(=O)c1[nH]c2ccccc2c1NC(=O)CN1CCCCCC1 | inactive |
| O=C(Nc1ccc(F)cc1)NC1CCCCC1 | inconclusive: 21.3 µM [inhibitor, partial curve] |
| COc1cc([N+](=O)[O-])ccc1-c1ccc(/C=N/NC(=O)c2ccccc2O)o1 | inconclusive: 23.9 µM [inhibitor, partial curve, poor fit] |
| COc1ccccc1C1NC(=O)c2n[nH]c(-c3cccs3)c21 (stereo not drawn) | inactive |
| O=C(Nc1ccccc1C(=O)Nc1nncs1)c1ccccc1 | active: 21.3 µM |
| CN(C)c1ccc(/C=N/NC(=O)C2CC2c2ccccc2)cc1 (stereo not drawn) | inconclusive: 19 µM [inhibitor, partial curve] |
| COCCCNC(=O)COc1ccc(-c2nccc(-c3ccccn3)n2)cc1 | inconclusive: 26.9 µM [inhibitor, single point] |
| Cc1cc(C(=O)N/N=C/c2ccc3ccccc3c2)n[nH]1 | inconclusive: 2.13 µM [inhibitor, full curve] |
| CCOC(=O)c1c(C)[nH]c(C(=O)Nc2ccc3c(c2)OCO3)c1C | active: 4.78 µM |
| COc1nc(N/N=C/c2cc3c(cc2Br)OCO3)nc(N2CCOCC2)n1 | inconclusive: 26.9 µM [inhibitor, single point] |
| O=[N+]([O-])c1ccc(O)c(C2=NNC(c3ccccc3F)C2)c1 (stereo not drawn) | active: 3.38 µM |
| Cc1nc2cc(-c3ccccc3)nn2c(C)c1CCC(=O)N1CCN(c2ccc(F)cc2)CC1 | inconclusive: 37.9 µM [inhibitor, partial curve, poor fit] |
| O=C(CN1CCN(S(=O)(=O)c2ccccc2)CC1)Nc1ccccc1Cl | inactive |
| Cc1cc(N/N=C/c2ccc(O)cc2)c2cccc(C)c2n1 | inconclusive: 16.9 µM [inhibitor, partial curve, poor fit] |

| Structure (SMILES) | Potency |
| --- | --- |
| Cc1ccc(OCC(=O)N2CCCCCCC2)cc1 | inconclusive: 21.3 µM [inhibitor, partial curve, poor fit] |
| N#C/C(=C\c1ccc(O)c(O)c1)C(=O)NCCCc1ccccc1 | inconclusive: 23.9 µM [inhibitor, partial curve, poor fit] |
| Cc1ccc(NC(=O)CN(C)C(=O)c2cccc(Br)c2)cc1 | inactive |
| Cc1ccc(C(=O)OCC(=O)N2CCCC2)cc1 | inconclusive: 37.9 µM [inhibitor, partial curve, poor fit] |
| CCOC(=O)CC(=O)CSc1ncnc2c1nnn2-c1ccc(OC)cc1 | inconclusive: 16.9 µM [inhibitor, partial curve, poor fit] |
| Cc1ccc(CNC(=O)CCS(=O)(=O)c2ccc3c(c2)NC(=O)CS3)cc1 | inactive |
| CCCC[n+]1c(-c2ccc(Cl)cc2Cl)csc1Nc1ccccc1 | inconclusive: 37.9 µM [inhibitor, partial curve, poor fit] |
| CCN1C(=O)C(C(=O)c2ccccc2)SC1=S (stereo not drawn) | inconclusive: 26.9 µM [inhibitor, single point] |
| Cc1ccc(NC(=O)c2ccccc2)cc1 | active: 6.01 µM |
| Cc1ccc(NC(=O)CSc2nc3nc(C)c(Cc4ccccc4)c(C)n3n2)cc1 | inactive |
| Cc1ccccc1Nc1c(F)c(F)c(F)c(F)c1C(=O)O | inconclusive: 21.3 µM [inhibitor, partial curve] |
| CC1CC(=O)N(CC(=O)Nc2cccc(F)c2)c2ccccc2S1(=O)=O (stereo not drawn) | inactive |
| CCOC(=O)C(Cc1ccc(NC(=O)/C(=C/c2ccccc2)NC(=O)c2ccccc2)cc1)N1C(=O)c2ccccc2C1=O (stereo not drawn) | inconclusive: 13.5 µM [inhibitor, partial curve] |
| CC1(C)CC(=O)c2cc(OCC(=O)N3CCCCCC3)ccc2O1 | inconclusive: 26.9 µM [inhibitor, partial curve, poor fit] |
| O=C(COC(=O)CSc1ccc([N+](=O)[O-])cc1)NCCC1=CCCCC1 | inactive |
| COC(CNC(=O)C(=O)NCC1CCCN1S(=O)(=O)c1cccs1)OC (stereo not drawn) | inactive |
| COc1ccc(S(=O)(=O)N2CC(C)N(C(=O)N3CCOCC3)C2)cc1 (stereo not drawn) | inactive |
| CCCCNC(=O)Nc1ccc(Br)cn1 | inconclusive: 23.9 µM [inhibitor, partial curve, poor fit] |
| Cc1[nH]c2ccccc2c1C(=O)CSc1n[nH]c(N)n1 | inactive |
| COc1ccc(CNC(=O)C2CCCN(S(=O)(=O)N(C)c3ccc(F)cc3)C2)cc1OC (stereo not drawn) | inactive |
| Cc1ccc(-c2cn3cc([N+](=O)[O-])ccc3n2)cc1 | active: 0.757 µM |
| CCCn1c(C)cc(/C=C(\C#N)C(=O)O)c1C | inconclusive: 30.1 µM [inhibitor, single point] |
| Cc1ccc(SCCc2ccc(C)nc2)cc1 | inconclusive: 26.9 µM [inhibitor, single point] |
| Cc1ccc(/C=C/S(=O)(=O)NCCC(=O)NCc2ccc(F)cc2)cc1 | inactive |
